Key:
[1] = HPLC analysis of mouse serum for level of compound; conditions: male, FVB, sc, Serum concentration of 1MT, 2×140 mg 1MT pellets implanted subcutaneously, male FVB mice
[2] = system: tumor growth in a mouse model; conditions: Friberg et al. 2002; U.S. Pat. No. 6,482,416; cited from earlier work
[3] = system: established tumors in MMTVneu mice; test: MMTVneu oncomouse breast cancer model, IDO inhibitor plus cytotoxic chemotherapeutic agent; assay type: in vivo, mouse; conditions: two week course; 1MT 20 mg/day pellets; paclitaxel or cisplatin i.v. at maximum-tolerated doses
Experimental: Each data point was determined from an individual mouse and the bars indicate the mean of the data points as listed at the bottom of the graph.
The MMTVneu transgenic “oncomouse” model of breast cancer was also used to measure the effects of IDO inhibition and cytotoxic chemotherapeutic agents on tumor pathophysiology.
MMTVneu “oncomice” bearing similarly sized tumors of ˜150 mm^3 were randomly assigned to control or experimental treatment groups. Control mice were implanted with placebo time-release pellets (Innovative Research, Inc., Sarasota, Fla.).
The cytotoxic chemotherapeutic agents were prepared and delivered to the mice as follows. Paclitaxel was dissolved in equal volumes of absolute ethanol and the clinically-used solubilizing agent Cremophor® EL. The solution was sonicated up to 30 minutes and stored as a 20 mg/ml stock solution at 4° C. for up to one week. Before use, this solution was diluted further at 1:5 with sterile physiological saline. Paclitaxel formulated in this manner was administered to mice by a single bolus intravenous (i.v.) injection into the tail vein. Mouse tails can be warmed to facilitate identification and injection of the vein. […] The MTD of cisplatin (1 mg/kg) was obtained as a clinical preparation in saline and delivered as a bolus i.v. injection on the same schedule. […]

[4] = system: established tumors in MMTVneu mice; test: MMTVneu oncomouse breast cancer model, IDO inhibitor plus signal transduction inhibitor; assay type: in vivo, mouse; conditions: two week course; 1MT 20 mg/day by subcutaneous time-release pellets
human IDO = human IDO (Homo sapiens, UniProt P14902); test: IDO enzyme assay, kynurenine production, enzyme kinetics; assay type: biochemical; conditions: from Ki values
Sequence of UniProt P14902 (P14902 whole entry): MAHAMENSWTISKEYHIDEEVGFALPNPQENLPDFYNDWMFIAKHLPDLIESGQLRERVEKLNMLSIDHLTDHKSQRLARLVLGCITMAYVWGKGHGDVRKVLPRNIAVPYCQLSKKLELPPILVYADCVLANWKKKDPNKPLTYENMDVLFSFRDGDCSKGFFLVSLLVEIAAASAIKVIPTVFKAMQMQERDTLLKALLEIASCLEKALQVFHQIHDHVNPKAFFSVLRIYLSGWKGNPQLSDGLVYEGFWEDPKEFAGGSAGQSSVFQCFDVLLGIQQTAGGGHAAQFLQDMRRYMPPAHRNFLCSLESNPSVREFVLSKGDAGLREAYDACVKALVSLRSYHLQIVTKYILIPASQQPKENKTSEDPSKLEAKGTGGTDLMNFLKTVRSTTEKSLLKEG

Cn1cc(CC(N)C(=O)O)c2ccccc21 (racemic) [1MT, 1-methyl-DL-tryptophan]
concentration at 3 days [1]: 104 µM | Effect on tumor growth [2]: only retarded and did not prevent tumor growth

N.N.[Cl][Pt][Cl] [Cisplatin, cisplatin]
Effect on tumor growth [3]: retarded but did not block tumor growth

CC[C@H](C)[C@@H](CO[C@@H](Cc1ccccc1)C(=O)N[C@@H](CCS(C)(=O)=O)C(=O)OC(C)C)NC[C@@H](N)CS [L-744,832]
Effect on tumor growth [4]: retarded but did not block tumor growth

CN1C(=O)C(Cc2c[nH]c3ccccc23)NC1=S (stereo not drawn) [MTH-Trp, 3-(N-methyl-thiohydantoin)-indole]
Potency of direct IDO enzyme inhibition relative to 1MT (human IDO): about 3 fold

CC(=O)O[C@H]1C(=O)[C@@]2(C)[C@H]([C@H](OC(=O)c3ccccc3)[C@]3(O)C[C@H](OC(=O)[C@H](O)[C@@H](NC(=O)c4ccccc4)c4ccccc4)C(C)=C1C3(C)C)[C@]1(OC(C)=O)CO[C@@H]1C[C@@H]2O [Taxol, paclitaxel]
Effect on tumor growth [3]: retarded but did not block tumor growth
